Data from publication PMC5398727, “GP73 represses host innate immune response to promote virus replication by facilitating MAVS and TRAF6 degradation” (PLoS Pathogens, 2017).
These are yes or no findings as the source states them, for the method shown. Binding seen in cells or lysates may run through a third protein. Where a sequence is shown, tags or fusion partners need not be part of it.

Amino acid sequences for entries named in this document (tags omitted). A change or cut given only in a name is not applied to a line headed by its entry. Residues count along the entry.
UniProt Q7Z434: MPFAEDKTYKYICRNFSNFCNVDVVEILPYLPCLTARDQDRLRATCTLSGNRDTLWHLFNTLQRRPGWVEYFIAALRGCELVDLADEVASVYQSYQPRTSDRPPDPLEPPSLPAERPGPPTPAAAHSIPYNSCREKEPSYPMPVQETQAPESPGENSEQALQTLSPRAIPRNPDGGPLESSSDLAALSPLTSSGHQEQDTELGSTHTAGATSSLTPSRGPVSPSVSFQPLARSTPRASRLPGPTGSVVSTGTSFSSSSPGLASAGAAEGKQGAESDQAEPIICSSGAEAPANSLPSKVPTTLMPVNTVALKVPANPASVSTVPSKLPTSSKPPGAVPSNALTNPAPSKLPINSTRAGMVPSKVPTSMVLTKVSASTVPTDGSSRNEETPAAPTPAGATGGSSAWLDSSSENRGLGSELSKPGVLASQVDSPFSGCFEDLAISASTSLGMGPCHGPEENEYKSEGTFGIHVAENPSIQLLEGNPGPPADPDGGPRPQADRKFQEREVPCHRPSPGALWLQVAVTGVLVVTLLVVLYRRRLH
MAVS (1–360): residues 1-360 of Q7Z434
MAVS (1–180): residues 1-180 of Q7Z434
MAVS (91–540): residues 91-540 of Q7Z434
MAVS (181–540): residues 181-540 of Q7Z434

Assays:
Assay in all cases: co-IP; HEK293 co-transfected with GP73 plasmid and Flag-tagged (or indicated) plasmids for 24 h; lysis in 50 mM Tris-HCl, 150 mM NaCl, 1% Triton X-100, 1 mM EDTA, 10% glycerol, pH 7.4; immunoprecipitated with anti-Flag (or IgG), washed with 300 mM NaCl buffer, WB; Fig 3B, 3C, 4C-F, S4B (for Fig 4C-F the antibodies are only 'indicated')
[1] = molecular target: T1, Flag-RIG-I (retinoic acid inducible gene I) (UniProt O95786)
T1 sequence: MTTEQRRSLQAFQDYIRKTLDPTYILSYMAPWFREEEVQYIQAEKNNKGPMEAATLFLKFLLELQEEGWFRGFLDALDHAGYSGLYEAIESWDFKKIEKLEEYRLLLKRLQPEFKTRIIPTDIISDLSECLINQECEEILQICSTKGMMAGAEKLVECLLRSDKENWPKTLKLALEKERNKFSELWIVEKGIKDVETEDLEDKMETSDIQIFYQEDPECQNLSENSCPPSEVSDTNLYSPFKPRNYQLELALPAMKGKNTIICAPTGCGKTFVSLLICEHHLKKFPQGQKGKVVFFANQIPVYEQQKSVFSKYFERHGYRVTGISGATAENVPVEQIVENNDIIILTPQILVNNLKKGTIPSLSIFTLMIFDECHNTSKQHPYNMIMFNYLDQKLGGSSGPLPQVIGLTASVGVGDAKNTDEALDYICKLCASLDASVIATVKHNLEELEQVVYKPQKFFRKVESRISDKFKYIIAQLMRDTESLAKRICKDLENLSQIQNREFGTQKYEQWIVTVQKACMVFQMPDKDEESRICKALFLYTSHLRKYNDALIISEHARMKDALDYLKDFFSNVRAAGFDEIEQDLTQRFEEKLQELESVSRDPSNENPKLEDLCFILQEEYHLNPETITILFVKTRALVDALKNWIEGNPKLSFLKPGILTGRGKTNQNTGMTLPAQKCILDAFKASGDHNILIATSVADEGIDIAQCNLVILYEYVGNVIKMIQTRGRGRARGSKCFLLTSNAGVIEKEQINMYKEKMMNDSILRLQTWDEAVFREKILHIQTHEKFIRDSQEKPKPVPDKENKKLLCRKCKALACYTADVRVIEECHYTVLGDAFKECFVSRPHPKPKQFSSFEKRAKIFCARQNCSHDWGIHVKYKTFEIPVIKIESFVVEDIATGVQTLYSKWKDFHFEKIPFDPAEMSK

MAVS (91–540) = MAVS (91–540) (UniProt Q7Z434)
MAVS (1–180) = MAVS (1–180) (UniProt Q7Z434)
Flag-TBK1 = molecular target: T2, Flag-TBK1 (UniProt Q9UHD2)
T2 sequence: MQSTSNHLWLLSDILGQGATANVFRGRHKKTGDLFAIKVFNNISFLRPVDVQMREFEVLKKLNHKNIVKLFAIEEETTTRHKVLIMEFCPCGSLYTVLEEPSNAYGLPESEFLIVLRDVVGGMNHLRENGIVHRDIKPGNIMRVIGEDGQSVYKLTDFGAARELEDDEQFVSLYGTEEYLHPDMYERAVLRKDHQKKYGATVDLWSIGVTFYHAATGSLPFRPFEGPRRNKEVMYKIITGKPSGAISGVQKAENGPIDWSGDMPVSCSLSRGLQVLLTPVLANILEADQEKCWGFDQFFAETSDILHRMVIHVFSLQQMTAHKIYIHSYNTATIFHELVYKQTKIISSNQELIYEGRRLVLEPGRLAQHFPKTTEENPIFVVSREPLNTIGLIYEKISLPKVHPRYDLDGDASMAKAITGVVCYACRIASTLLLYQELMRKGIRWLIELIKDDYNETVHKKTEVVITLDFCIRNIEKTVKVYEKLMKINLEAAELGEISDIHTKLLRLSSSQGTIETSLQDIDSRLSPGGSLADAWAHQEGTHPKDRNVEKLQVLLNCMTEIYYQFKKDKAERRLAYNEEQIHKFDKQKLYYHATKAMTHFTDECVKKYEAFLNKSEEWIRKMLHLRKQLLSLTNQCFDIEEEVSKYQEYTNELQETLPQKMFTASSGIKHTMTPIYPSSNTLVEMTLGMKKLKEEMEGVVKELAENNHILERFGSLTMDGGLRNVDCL

MAVS (181–540) = MAVS (181–540) (UniProt Q7Z434)
MAVS (1–360) = MAVS (1–360) (UniProt Q7Z434)

Measured: binding

B1: HA-GP73 (Golgi protein 73) (protein, UniProt Q8NBJ4 1-401)
chain: MMGLGNGRRSMKSPPLVLAALVACIIVLGFNYWIASSRSVDLQTRIMELEGRVRRAAAERGAVELKKNEFQGELEKQREQLDKIQSSHNFQLESVNKLYQDEKAVLVNNITTGERLIRVLQDQLKTLQRNYGRLQQDVLQFQKNQTNLERKFSYDLSQCINQMKEVKEQCEERIEEVTKKGNEAVASRDLSENNDQRQQLQALSEPQPRLQAAGLPHTEVPQGKGNVLGNSKSQTPAPSSEVVLDSKRQVEKEETNEIQVVNEEPQRDRLPQEPGREQVVEDRPVGGRGFGGAGELGQTPQVQAALSVSQENPEMEGPERDQLVIPDGQEEEQEAAGEGRNQQKLRGEDDYNMDENEAESETDKQAALAGNDRNIDVFNVEDQKRDTINLLDQREKRNHTL
no binding: all assays above
